# The list shows a part of the results.
# Columns and labels:
# Assay in all cases: glycan array binding signal (z-score within array); higher = stronger binding
# Conditions in all cases: glycan notation: IUPAC condensed, linker removed
# [1] = target: Neu5Ac(a2-3)Gal(b1-4)GlcNAc
# Method in brief: (§1)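 The binding signal is a Z-score computed within each array. Data were drawn from 3228 arrays in the Consortium for Functional Glycomics database, restricted to those with a known protein sequence. Scores were averaged over arrays of the same protein sequence at different concentrations or buffers, and over linkers, and negative values can be taken as non-binding.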
# [2] = target: Neu5Ac(a2-3)Gal(b1-4)GlcNAc(b1-2)Man(a1-3)[GlcNAc(b1-2)Man(b1-4)GlcNAc(b1-2)Man(a1-6)]Man(b1-4)GlcNAc(b1-4)GlcNAc
# Method in brief: as §1
# [3] = target: Neu5Ac(a2-3)Gal(b1-4)GlcNAc(b1-2)Man(a1-3)[Neu5Ac(a2-6)Gal(b1-4)GlcNAc(b1-2)Man(a1-6)]Man(b1-4)GlcNAc(b1-4)GlcNAc
# Method in brief: as §1
# [4] = target: Neu5Ac(a2-3)Gal(b1-4)GlcNAc(b1-3)Gal(b1-3)GlcNAc
# Method in brief: as §1
# [5] = target: Neu5Ac(a2-3)Gal(b1-4)GlcNAc(b1-3)Gal(b1-4)GlcNAc
# Method in brief: as §1
# [6] = target: Neu5Ac(a2-3)Gal(b1-4)GlcNAc(b1-3)Gal(b1-4)GlcNAc(b1-3)Gal(b1-4)GlcNAc
# Method in brief: as §1
# [7] = target: Neu5Ac(a2-3)Gal(b1-4)GlcNAc(b1-3)Gal(b1-4)[Fuc(a1-3)]GlcNAc
# Method in brief: as §1
# [8] = target: Neu5Ac(a2-3)Gal(b1-4)GlcNAc(b1-3)GalNAc
# Method in brief: as §1
# [9] = target: Neu5Ac(a2-3)Gal(b1-4)GlcNAc(b1-6)[Gal(b1-3)]GalNAc
# Method in brief: as §1
# [10] = target: Neu5Ac(a2-3)Gal(b1-4)GlcNAc(b1-6)[Neu5Ac(a2-3)Gal(b1-3)]GalNAc
# Method in brief: as §1
# [11] = target: Neu5Ac(a2-3)Gal(b1-4)GlcNAc6S
# Method in brief: as §1
# [12] = target: Neu5Ac(a2-3)Gal(b1-4)[Fuc(a1-3)]GlcNAc
# Method in brief: as §1
# [13] = target: Neu5Ac(a2-3)Gal(b1-4)[Fuc(a1-3)]GlcNAc(b1-3)Gal
# Method in brief: as §1
# [14] = target: Neu5Ac(a2-3)Gal(b1-4)[Fuc(a1-3)]GlcNAc(b1-3)Gal(b1-4)GlcNAc
# Method in brief: as §1
# [15] = target: Neu5Ac(a2-3)Gal(b1-4)[Fuc(a1-3)]GlcNAc(b1-3)Gal(b1-4)[Fuc(a1-3)]GlcNAc(b1-3)Gal(b1-4)[Fuc(a1-3)]GlcNAc
# Method in brief: as §1
# [16] = target: Neu5Ac(a2-3)Gal(b1-4)[Fuc(a1-3)]GlcNAc(b1-3)GalNAc
# Method in brief: as §1
# [17] = target: Neu5Ac(a2-3)Gal(b1-4)[Fuc(a1-3)]GlcNAc(b1-6)[Gal(b1-3)]GalNAc
# Method in brief: as §1
# [18] = target: Neu5Ac(a2-3)Gal(b1-4)[Fuc(a1-3)]GlcNAc(b1-6)[Neu5Ac(a2-3)Gal(b1-3)]GalNAc
# Method in brief: as §1
# [19] = target: Neu5Ac(a2-3)Gal(b1-4)[Fuc(a1-3)]GlcNAc6S
# Method in brief: as §1
# [20] = target: Neu5Ac(a2-3)Gal6S(b1-4)GlcNAc
# Method in brief: as §1
# [21] = target: Neu5Ac(a2-3)Gal6S(b1-4)[Fuc(a1-3)]GlcNAc
# Method in brief: as §1
# Neu5Ac(a2-3)GalNAc = target: Neu5Ac(a2-3)GalNAc
# Method in brief: as §1
# [22] = target: Neu5Ac(a2-3)GalNAc(b1-4)GlcNAc
# Method in brief: as §1
# [23] = target: Neu5Ac(a2-3)[GalNAc(b1-4)]Gal(b1-4)Glc
# Method in brief: as §1
# [24] = target: Neu5Ac(a2-3)[GalNAc(b1-4)]Gal(b1-4)GlcNAc
# Method in brief: as §1
# [25] = target: Neu5Ac(a2-3)[GalNAc(b1-4)]Gal(b1-4)GlcNAc(b1-3)GalNAc
# Method in brief: as §1
# [26] = target: Neu5Ac(a2-3)[Neu5Ac(a2-6)]GalNAc
# Method in brief: as §1
# Neu5Ac(a2-6)Gal = target: Neu5Ac(a2-6)Gal
# Method in brief: as §1
# Neu5Ac(a2-6)Gal(b1-4)Glc = target: Neu5Ac(a2-6)Gal(b1-4)Glc
# Method in brief: as §1
# [27] = target: Neu5Ac(a2-6)Gal(b1-4)GlcNAc
# Method in brief: as §1
# [28] = target: Neu5Ac(a2-6)Gal(b1-4)GlcNAc(b1-2)Man(a1-3)Man(b1-4)GlcNAc(b1-4)GlcNAc
# Method in brief: as §1
# [29] = target: Neu5Ac(a2-6)Gal(b1-4)GlcNAc(b1-2)Man(a1-3)[Gal(b1-4)GlcNAc(b1-2)Man(a1-6)]Man(b1-4)GlcNAc(b1-4)GlcNAc
# Method in brief: as §1
# [30] = target: Neu5Ac(a2-6)Gal(b1-4)GlcNAc(b1-2)Man(a1-3)[GlcNAc(b1-2)Man(a1-6)]Man(b1-4)GlcNAc(b1-4)GlcNAc
# Method in brief: as §1
# [31] = target: Neu5Ac(a2-6)Gal(b1-4)GlcNAc(b1-2)Man(a1-3)[GlcNAc(b1-2)Man(b1-4)GlcNAc(b1-2)Man(a1-6)]Man(b1-4)GlcNAc(b1-4)GlcNAc
# Method in brief: as §1
# [32] = target: Neu5Ac(a2-6)Gal(b1-4)GlcNAc(b1-2)Man(a1-3)[Man(a1-6)]Man(b1-4)GlcNAc(b1-4)GlcNAc
# Method in brief: as §1
binder,measurement,setting,value
"ZG-16 (Homo sapiens), O60844 (protein) IQARSSSYSGEYGSGGGKRFSHSGNQLDGPITALRVRVNTYYIVGLQVRYGKVWSDYVGGRNGDLEEIFLHPGESVIQVSGKYKWYLKKLVFVTDKGRYLSFGKDSGTSFNAVPLHPNTVLRFISGRSGSLIDAIGLHWDVYPTSCSRCSRGSDDDDKAEPRGPTIKPCPPCKCPAPNLLGGPSVFIFPPKIKDVLMISLSPIVTCVVVDVSEDDPDVQISWFVNNVEVHTAQTQTHREDYNSTLRVVSALPIQHQDWMSGKEFKCKVNNKDLPAPIERTISKPKGSVRAPQVYVLPPPEEEMTKKQVTLTCMVTDFMPEDIYVEWTNNGKTELNYKNTEPVLDSDGSYFMYSKLRVEKKNWVERNSYSCSVVHEGLHNHHTTKSFSRTPGKRTYHHHHHHARKLTR",glycan array binding signal (z-score),[1],-0.209
same,glycan array binding signal (z-score),[2],-0.116
same,glycan array binding signal (z-score),[3],-0.186
same,glycan array binding signal (z-score),[4],-0.211
same,glycan array binding signal (z-score),[5],-0.176
same,glycan array binding signal (z-score),[6],-0.211
same,glycan array binding signal (z-score),[7],-0.183
same,glycan array binding signal (z-score),[8],-0.168
same,glycan array binding signal (z-score),[9],-0.205
same,glycan array binding signal (z-score),[10],-0.202
same,glycan array binding signal (z-score),[11],-0.16
same,glycan array binding signal (z-score),[12],-0.19
same,glycan array binding signal (z-score),[13],-0.127
same,glycan array binding signal (z-score),[14],-0.2
same,glycan array binding signal (z-score),[15],-0.204
same,glycan array binding signal (z-score),[16],-0.062
same,glycan array binding signal (z-score),[17],-0.204
same,glycan array binding signal (z-score),[18],-0.07
same,glycan array binding signal (z-score),[19],-0.169
same,glycan array binding signal (z-score),[20],-0.046
same,glycan array binding signal (z-score),[21],-0.194
same,glycan array binding signal (z-score),Neu5Ac(a2-3)GalNAc,-0.218
same,glycan array binding signal (z-score),[22],-0.229
same,glycan array binding signal (z-score),[23],-0.21
same,glycan array binding signal (z-score),[24],-0.173
same,glycan array binding signal (z-score),[25],-0.178
same,glycan array binding signal (z-score),[26],-0.228
same,glycan array binding signal (z-score),Neu5Ac(a2-6)Gal,-0.225
same,glycan array binding signal (z-score),Neu5Ac(a2-6)Gal(b1-4)Glc,-0.175
same,glycan array binding signal (z-score),[27],-0.173
same,glycan array binding signal (z-score),[28],-0.203
same,glycan array binding signal (z-score),[29],-0.241
same,glycan array binding signal (z-score),[30],-0.185
same,glycan array binding signal (z-score),[31],-0.177
same,glycan array binding signal (z-score),[32],-0.148

# Reference: the supplement of paper PMC8728848
